Assay results from the RNAGym collection of RNA variant scans (doi:10.7554/elife.90254).
Read counts are not given, so values of variants with three or more changes are uncertain.

B1: OR4K15 (parent)
chain: GUUAACGGUCAUAGGCCAUGGAAACUAGGAGCACCAUUUCGCUGCCAGUGAAGAAAUGAACAAAGAAAAUCUGGGCCAGGCAGGCAUCAAAAGAAAUAGUCUUGCGCUCAACCAGAAAGUCUGUAAUCAUUUUAAGGGUA

Variants of: B1
Assay: self-cleavage, relative activity (ratio to wild type); higher = more cleavage; in vitro, sequencing; the parent is a self-cleaving ribozyme

**Q.** For U49C A90G U124C, which self-cleavage is on record?
**A.** The self-cleavage was 0.33.

**Q.** With U39C A82G U103C A110U as the variant, how does the self-cleavage read?
**A.** Its self-cleavage is 1.05.

**Q.** With G75A A114U A134G as the variant, how does the self-cleavage read?
**A.** The self-cleavage was 0.

**Q.** Which self-cleavage does the source give for U43A A62G U87C U127C here?
**A.** Its self-cleavage is 0.81.

**Q.** For A18G A51G A126G U132C, which self-cleavage is on record?
**A.** The self-cleavage was 0.81.

**Q.** With A36G A91G A111G as the variant, how does the self-cleavage read?
**A.** Its self-cleavage is 0.02.

**Q.** For U12C U70A G75C A92G, which self-cleavage is on record?
**A.** The self-cleavage was 0.07.

**Q.** For A11G U43A A91U A111G, which self-cleavage is on record?
**A.** The self-cleavage was 0.11.

**Q.** With A11G A30G A63G A86G U139C A140G as the variant, how does the self-cleavage read?
**A.** The self-cleavage was 1.04.

**Q.** Which self-cleavage does the source give for A11G U38C U57C A62G U108C here?
**A.** The self-cleavage was 0.07.

**Q.** With A11U G80A A90G U103C G136A as the variant, how does the self-cleavage read?
**A.** Its self-cleavage is 0.02.

**Q.** With A24G G44U A117G U139G as the variant, how does the self-cleavage read?
**A.** Its self-cleavage is 0.72.

**Q.** With A51G A110G U133C as the variant, how does the self-cleavage read?
**A.** Its self-cleavage is 0.17.

**Q.** Which self-cleavage does the source give for A23G A33G A135U here?
**A.** The self-cleavage was 0.48.

**Q.** For A47U A60G U130A U132C, which self-cleavage is on record?
**A.** Its self-cleavage is 0.56.

**Q.** With A23G A24G A54G A56G A86G U108C U120A G123A as the variant, how does the self-cleavage read?
**A.** Its self-cleavage is 0.04.

**Q.** With C6A U19C A94G as the variant, how does the self-cleavage read?
**A.** The self-cleavage was 1.32.

**Q.** With C76U A110G A116G as the variant, how does the self-cleavage read?
**A.** The self-cleavage was 0.02.

**Q.** Which self-cleavage does the source give for C10A A94G A116G here?
**A.** The self-cleavage was 0.24.

**Q.** For A30G U37C U43A A68G U132C, which self-cleavage is on record?
**A.** Its self-cleavage is 1.56.

**Q.** With U37C A52G U108C as the variant, how does the self-cleavage read?
**A.** Its self-cleavage is 0.03.

**Q.** For A27U U39C A60G U70C, which self-cleavage is on record?
**A.** The self-cleavage was 0.72.

**Q.** With A33G A59U A66G A69G U103C as the variant, how does the self-cleavage read?
**A.** Its self-cleavage is 0.17.

**Q.** Which self-cleavage does the source give for A13U A110U A117U here?
**A.** Its self-cleavage is 1.62.

**Q.** For A23G A36U A116G U127C U130C, which self-cleavage is on record?
**A.** The self-cleavage was 0.19.

**Q.** Which self-cleavage does the source give for G29A U38A A54U A68G A96G C105U here?
**A.** Its self-cleavage is 0.27.

**Q.** For A23G A64G A78U A96C U131C, which self-cleavage is on record?
**A.** The self-cleavage was 0.08.

**Q.** With U37C U43A U108C as the variant, how does the self-cleavage read?
**A.** The self-cleavage was 0.01.

**Q.** For A30U A62G A64U A66C A67G A118G, which self-cleavage is on record?
**A.** The self-cleavage was 0.44.

**Q.** For U39C A56G U108A, which self-cleavage is on record?
**A.** The self-cleavage was 0.01.

**Q.** For A55U A60G A67G, which self-cleavage is on record?
**A.** Its self-cleavage is 1.22.

**Q.** With A24G A68U A86G U103A A117G as the variant, how does the self-cleavage read?
**A.** Its self-cleavage is 0.62.

**Q.** With U19A A59U A89G A116U as the variant, how does the self-cleavage read?
**A.** Its self-cleavage is 0.17.

**Q.** Which self-cleavage does the source give for A51G U87C U130C here?
**A.** Its self-cleavage is 0.41.

**Q.** With U43C U57C U102A as the variant, how does the self-cleavage read?
**A.** The self-cleavage was 0.39.

**Q.** Which self-cleavage does the source give for U37C A63G U100C here?
**A.** The self-cleavage was 2.18.

**Q.** Which self-cleavage does the source give for A18G A30G U57C U130C here?
**A.** Its self-cleavage is 0.82.

**Q.** For U19C G20A U38C A82G A89U A94G U127C, which self-cleavage is on record?
**A.** Its self-cleavage is 0.24.

**Q.** With A47G A64U A82U as the variant, how does the self-cleavage read?
**A.** Its self-cleavage is 0.12.

**Q.** For U9C U39A U122C A125C, which self-cleavage is on record?
**A.** The self-cleavage was 0.87.

**Q.** For U43C A60U A135G, which self-cleavage is on record?
**A.** Its self-cleavage is 1.8.

**Q.** For A22G U39A U102A U124C, which self-cleavage is on record?
**A.** Its self-cleavage is 0.51.

**Q.** For A51G U87C U108C A118G, which self-cleavage is on record?
**A.** Its self-cleavage is 0.01.

**Q.** With A22G A59U A89C A114G as the variant, how does the self-cleavage read?
**A.** Its self-cleavage is 0.22.

**Q.** Which self-cleavage does the source give for U19C A111G A140G here?
**A.** Its self-cleavage is 0.03.

**Q.** Which self-cleavage does the source give for A24G A33G A36G U70A here?
**A.** The self-cleavage was 0.95.

**Q.** For A82U A92G U102A U122C, which self-cleavage is on record?
**A.** Its self-cleavage is 0.06.

**Q.** Which self-cleavage does the source give for U38A G73U C85U here?
**A.** Its self-cleavage is 0.27.

**Q.** For A22U A27G U38C U103C U132C, which self-cleavage is on record?
**A.** Its self-cleavage is 0.55.

**Q.** For U2A A30U A55G U70C A82G, which self-cleavage is on record?
**A.** The self-cleavage was 0.6.

**Q.** For C17U A51G A86G U87C A95G A118G, which self-cleavage is on record?
**A.** The self-cleavage was 0.11.

**Q.** For A18G A54G A89G A116G U131C, which self-cleavage is on record?
**A.** The self-cleavage was 0.04.

**Q.** For U9C U122A A125G A129G, which self-cleavage is on record?
**A.** The self-cleavage was 0.19.

**Q.** Which self-cleavage does the source give for U19C A67G A78U A82G here?
**A.** Its self-cleavage is 0.12.

**Q.** With A24U A94G A114U U131C as the variant, how does the self-cleavage read?
**A.** Its self-cleavage is 0.04.

**Q.** With U9A A47G A62U C76U A89G A111G as the variant, how does the self-cleavage read?
**A.** The self-cleavage was 0.03.

**Q.** For A5G U43A A54G, which self-cleavage is on record?
**A.** The self-cleavage was 1.12.

**Q.** Which self-cleavage does the source give for U43C A55G G104A U122A here?
**A.** Its self-cleavage is 0.02.

**Q.** With U3A A23G A24U U49C as the variant, how does the self-cleavage read?
**A.** Its self-cleavage is 0.66.

**Q.** Which self-cleavage does the source give for U70C A95G A114G here?
**A.** The self-cleavage was 0.43.

**Q.** For U9C A55C A116U, which self-cleavage is on record?
**A.** The self-cleavage was 0.3.

**Q.** With U37C A55G A62G A82G A116U as the variant, how does the self-cleavage read?
**A.** Its self-cleavage is 0.07.

**Q.** Which self-cleavage does the source give for A23U A86U U87G A118G A129G here?
**A.** The self-cleavage was 1.25.

**Q.** Which self-cleavage does the source give for A86U U87C A91G A94G here?
**A.** Its self-cleavage is 1.41.

**Q.** With A23G U87C A92G as the variant, how does the self-cleavage read?
**A.** The self-cleavage was 0.97.

**Q.** With U49C A62G A92G A98G as the variant, how does the self-cleavage read?
**A.** The self-cleavage was 0.41.

**Q.** For U19C A82U U103A, which self-cleavage is on record?
**A.** The self-cleavage was 0.76.

**Q.** For U19C A23G A59G A63G, which self-cleavage is on record?
**A.** The self-cleavage was 0.46.

**Q.** Which self-cleavage does the source give for U57A A66U A82G A116G here?
**A.** The self-cleavage was 0.

**Q.** With U19C A59G A82G U100C as the variant, how does the self-cleavage read?
**A.** The self-cleavage was 1.06.

**Q.** With A23G A36G G83U A94G A116G U130C as the variant, how does the self-cleavage read?
**A.** The self-cleavage was 0.08.

**Q.** For A62U G79A U122C, which self-cleavage is on record?
**A.** The self-cleavage was 0.11.

**Q.** Which self-cleavage does the source give for U38A A60G A95G U100C here?
**A.** Its self-cleavage is 0.76.

**Q.** With U9C A60G A62G as the variant, how does the self-cleavage read?
**A.** Its self-cleavage is 0.41.

**Q.** Which self-cleavage does the source give for A11U G79A A117G here?
**A.** Its self-cleavage is 0.09.

**Q.** Which self-cleavage does the source give for A4G A78G A126G here?
**A.** Its self-cleavage is 0.52.

**Q.** Which self-cleavage does the source give for U9A A64G U70A A117G here?
**A.** Its self-cleavage is 0.79.

**Q.** For U43C U100A U120A A126G, which self-cleavage is on record?
**A.** The self-cleavage was 0.22.

**Q.** With U12A C16U U19C G21A C35G A117G as the variant, how does the self-cleavage read?
**A.** The self-cleavage was 0.77.

**Q.** With U9C A22G A52G A86G as the variant, how does the self-cleavage read?
**A.** The self-cleavage was 0.96.

**Q.** With A33G U39C A52G A68G A98U U124C as the variant, how does the self-cleavage read?
**A.** The self-cleavage was 1.74.

**Q.** With U2C A23G C34G A47U A59G as the variant, how does the self-cleavage read?
**A.** The self-cleavage was 0.57.

**Q.** Which self-cleavage does the source give for U38A U43A U108C A117G here?
**A.** Its self-cleavage is 0.

**Q.** With A67U A86G U122C U132G as the variant, how does the self-cleavage read?
**A.** Its self-cleavage is 2.09.
